Results as given in PubChem BioAssay AID1030 (National Center for Advancing Translational Sciences (NCATS), 2008).
Several values for one entry are separate records, joined by “and”; a condition that tells them apart may be missing. Identical values can stand only once. Out of some 220,000 compounds screened, about 16,000 (7.3%) were called active. The shares of active, inactive and inconclusive entries below differ from those in the screen. Calls follow the shape of the dose curve; as a rule, active = well fitted inhibition curve with a large enough effect (not every such curve was filed as active); inconclusive = small, poorly fitted or top-dose-only effect, or another doubt; inactive = no such curve, though single readings can be large or run the other way. Potencies beside an inconclusive call are fits to weak or partial responses and may not hold up.

What follows are molecules tested against Aldehyde dehydrogenase 1A1 (Homo sapiens) (UniProt P00352) (assay: qHTS Assay for Inhibitors of Aldehyde Dehydrogenase 1 (ALDH1A1)). Conditions: Purified ALDH1A1, NADH fluorescence, propionaldehyde substrate; series mostly up to 75.3 µM.
Sequence of UniProt P00352 (P00352 whole entry, looked up): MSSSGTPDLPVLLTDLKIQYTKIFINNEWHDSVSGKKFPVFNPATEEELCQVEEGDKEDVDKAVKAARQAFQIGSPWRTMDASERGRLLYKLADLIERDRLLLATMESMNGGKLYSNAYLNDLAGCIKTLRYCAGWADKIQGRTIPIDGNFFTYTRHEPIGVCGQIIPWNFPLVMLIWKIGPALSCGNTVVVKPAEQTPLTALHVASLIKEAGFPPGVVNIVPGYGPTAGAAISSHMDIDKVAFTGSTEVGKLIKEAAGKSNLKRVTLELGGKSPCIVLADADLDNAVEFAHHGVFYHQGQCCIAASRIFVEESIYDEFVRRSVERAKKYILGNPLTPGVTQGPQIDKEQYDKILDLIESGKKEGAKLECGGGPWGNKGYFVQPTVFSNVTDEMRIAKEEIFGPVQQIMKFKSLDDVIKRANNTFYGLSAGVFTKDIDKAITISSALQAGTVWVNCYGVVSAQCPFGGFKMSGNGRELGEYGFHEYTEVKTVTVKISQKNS
Potency is read from the fitted curve at half-maximal effect; tags tell the direction and shape of the fitted curve.

Potency, inactive:
COC(=O)N/N=C\c1c(C)[nH]n(-c2ccccc2)c1=O
O=C(Nc1ccccc1Cl)c1cc[n+](Cc2ccc([N+](=O)[O-])cc2)cc1
CO[C@H]1C[C@@H](O[C@@H]2[C@H](C)[C@H](O[C@@H]3O[C@@H](C)C[C@@H](N(C)C)[C@@H]3O)[C@H](C)C[C@]3(CO3)C(=O)[C@H](C)[C@H](O)[C@H](C)[C@H](C)OC(=O)[C@@H]2C)O[C@@H](C)[C@H]1O
COc1ccc(CCNC(=O)c2ccc(-c3ccc([N+](=O)[O-])cc3Cl)o2)cc1OC
O=C(CCS(=O)(=O)Cc1ccccc1)NCCc1ccccc1
COc1ccc(Nc2ncnc3ccccc23)cc1
C/C(N)=C(/C#N)C(=O)COC(=O)c1cc(-c2ccccc2)nc2ccc(Br)cc12
CCC(C)NC(=O)CSc1nnc(-c2c[nH]c3ccccc23)o1 (stereo not drawn)
CC(C(=O)Nc1nc2ccccc2s1)n1cc([N+](=O)[O-])cn1 (stereo not drawn)
O=C(O)c1ccc2c(c1)ncn2C1CCCCC1
CCCCCCCCCCOC(=O)c1csc2nnsc12
COc1ccc(OCCC(=O)N2CCCCC2)cc1
O=c1[nH]ncc2c3ccccc3n(Cc3ccccc3F)c12
O=C1c2ccccc2NC(c2ccc(-c3ccc(Br)cc3)o2)N1O (stereo not drawn)
CCOC(=O)c1cnc2c(-c3ccc(Cl)cc3)cnn2c1C
COc1ccc(CCNC(=O)CC(c2ccccc2)c2cccc(C)c2O)cc1OC (stereo not drawn)
C=CCN(c1cccc(C(F)(F)F)c1)S(=O)(=O)c1cccc(C(=O)OCC(=O)NCCC)c1
Cc1nn(C)c(C)c1S(=O)(=O)Nc1ccc2c(c1)OCO2

Potency, active:
S=C(c1ccc(-c2ccc(Cl)cc2Cl)o1)N1CCCC1 3.98 µM
Cc1ccccc1C(=O)Nc1nc(=S)ss1 3.16 µM
CC(C)Cn1c(C(C)C)nc([N+](=O)[O-])c1Sc1ccc(Cl)cn1 22.4 µM
CC(=O)c1ccc(N2CCN(C(=O)c3ccc4c(=O)n(-c5ccccc5)c(=O)[nH]c4c3)CC2)cc1 14.1 µM
O=C(O)C1CC=CCC1C(=O)Nc1cccc(F)c1 (stereo not drawn) 28.2 µM
Cc1cc2oc(=O)cc(CSc3nc(N)cc(N)n3)c2cc1C(C)C 17.8 µM
CC(C)S(=O)(=O)N1CCN(c2ccnc3cc(Cl)ccc23)CC1 14.1 µM
O=C(NCC(=O)N(Cc1cccs1)C(C(=O)NC1CCCCC1)c1ccco1)c1ccco1 (stereo not drawn) 22.4 µM

Potency, inconclusive:
O=C(NCc1ccco1)c1nc2nc(-c3cccs3)cc(C(F)(F)F)n2n1 31.6 µM [inhibitor, partial curve]
O=C1c2ccccc2NC2(CCCC2)N1NS(=O)(=O)c1ccccc1 28.2 µM [inhibitor, single point]
CC(C)(C)CN1CCNC(=O)C1CC(=O)NCCc1ccccc1F (stereo not drawn) 39.8 µM [inhibitor, single point]
CC1=CC=CN2C1=NC(=O)CC2(C)C(=O)N(CC(=O)NC1CCCC1)c1cc(C)cc(C)c1 (stereo not drawn) 31.6 µM [inhibitor, partial curve]
COc1ccc(CCn2c(N)c(S(=O)(=O)c3cccs3)c3nc4ccccc4nc32)cc1OC 39.8 µM [inhibitor, single point]
COc1ccc(-n2c(=O)c(C)nc3cnc(N4CCNCC4)nc32)cc1 31.6 µM [inhibitor, single point]
Nc1nc2c(cnn2CCc2ccccc2)c2nc(-c3ccco3)nn12 14.1 µM [inhibitor, partial curve]
COc1cc(-c2nnc(-c3cccs3)o2)cc(OC)c1OC 25.1 µM [inhibitor, partial curve]
Cc1ccc(-c2nc3cc(N)ccc3o2)c(C)c1 25.1 µM [inhibitor, partial curve]
CCCCOC(=O)C1[C@H]2C(=O)N(c3ccccc3CC)C[C@]23C=C[C@H]1O3 (stereo partly drawn) 39.8 µM [inhibitor, single point]
Fc1ccccc1N1CCN(Cc2nc(-c3ccccc3)no2)CC1 39.8 µM [inhibitor, single point]
COc1ccc(CN(C(=O)c2ccco2)c2ccc(C)c(C)c2)cc1 39.8 µM [inhibitor, single point]
CCC(=O)c1cccc2c1N=CC1=C(CC(C)(C)CC1=O)N2 35.5 µM [inhibitor, single point]
Cc1ccc(NC(=O)COC(=O)c2ccc(Cl)cc2)cc1S(=O)(=O)N(C)C 28.2 µM [inhibitor, partial curve]
COc1cccc(Cn2c(=O)c(C)nc3cnc(Oc4cccc(Cl)c4)nc32)c1 25.1 µM [inhibitor, single point]
Fc1ccc(C2=NNC(=NCc3ccccc3)SC2)cc1F 39.8 µM [inhibitor, single point]
CCOc1cc(N2CCOCC2)c(OCC)cc1NC(=O)c1cc(C)nc2ccccc12 39.8 µM [inhibitor, single point]
Cc1csc(NC(=O)C2CCN(S(=O)(=O)c3ccccc3F)CC2)n1 39.8 µM [inhibitor, single point]
CC(=O)OCCNC(=O)c1cc2ccccc2oc1=O 39.8 µM [inhibitor, single point]
O=C(Nc1ccc2oc(-c3ccccc3)nc2c1)c1ccc2c(c1)OCCO2 39.8 µM [inhibitor, single point]
COCCn1c(-c2ccc(C#N)cc2)nc2c1c(=O)[nH]c(=O)n2Cc1ccccc1 31.6 µM [inhibitor, partial curve]
Fc1ccc(-n2cc(CNCCc3cccnc3)c(-c3ccccc3Cl)n2)cc1 39.8 µM [inhibitor, single point]
COC(=O)c1cccc(NC(=S)Nc2cccc(Cl)c2C)c1 39.8 µM [inhibitor, single point]
O=C(NC(=S)Nc1ccc(Cl)cn1)C12CC3CC(CC(C3)C1)C2 35.5 µM [inhibitor, single point]
CCc1ccccc1NC(=O)c1cccc(NC(=O)/C=C/c2ccco2)c1 39.8 µM [inhibitor, single point]
COc1ccc(CCNC(=O)c2ccc3c(SCC(=O)O)c4c(nc3c2)CCCC4)cc1OC 39.8 µM [inhibitor, single point]
CNC(=S)N1N=C(c2ccc(OC)cc2)CC1c1ccc(Cl)cc1Cl (stereo not drawn) 25.1 µM [inhibitor, single point]
COc1ccc(C(=O)n2nc(-c3ccccc3)nc2SC)cc1 39.8 µM [inhibitor, partial curve]
CC(C)[C@H]1CN=C2N(CCNC(=O)CCC3CCCCC3)[C@H](Cc3ccc(O)cc3)CN21 25.1 µM [inhibitor, partial curve]
O=c1[nH]c(CSc2ncc(-c3ccc(F)cc3)n2Cc2ccco2)nc2ccccc12 39.8 µM [inhibitor, single point]
Nc1c(N(CCO)C(=O)/C=C/c2ccco2)c(=O)[nH]c(=O)n1Cc1ccccc1 39.8 µM [inhibitor, single point]
Cc1cc(=O)oc2cc(OCC(=O)OCC(=O)Nc3ccccc3C(C)C)ccc12 22.4 µM [inhibitor, partial curve]
CO[C@H]1COC(=O)[C@@H](CCSC)NC(=O)C/C=C\[C@@H](C)COC(=O)[C@@H](OCc2ccccc2)/C=C\[C@@H]1C 2.51 µM [inhibitor, partial curve, poor fit]
COc1ccc(OCCSc2nnc(Cc3cccc4ccccc34)n2N)cc1 25.1 µM [inhibitor, partial curve]
CCOc1ccc(-c2nnc(-c3ccco3)o2)cc1OCC 35.5 µM [inhibitor, partial curve]
COc1cccc([C@@H]2Oc3ccc(OC)cc3C(=O)[C@H]2OC(=O)N[C@H]2CCCc3ccccc32)c1 15.8 µM [inhibitor, partial curve]
O=C(Cn1c(-c2cncs2)nc2ccccc21)NCc1ccccc1 44.7 µM [inhibitor, single point]
O=C(O)c1ccc(-c2nc3ccccc3[nH]2)cc1 28.2 µM [inhibitor, partial curve]
O=C(O)Cc1c(O)ccc2ccccc12 25.1 µM [inhibitor, single point] and 5.62 µM [inhibitor, single point]
COc1ccc(C(=O)N/N=C(\CCC(=O)O)c2ccc(C(C)(C)C)cc2)cc1OC 23.8 µM [inhibitor, partial curve]
CC(=O)C1=C(C)NC(=O)NC1c1ccc(OC2CCCC2)cc1 (stereo not drawn) 39.8 µM [inhibitor, single point]
C#Cc1ccc([C@H]2C=C(C(=O)N3CCN(Cc4ccccc4)CC3)O[C@@H](OCc3ccc(CO)cc3)C2)cc1 39.8 µM [inhibitor, single point]
